Test results published in the supplement of paper PMC12230231.
± gives the standard deviation of the averaged measurements. Restriction of a single-cycle SIVsab GFP reporter by TRIM5α v1-loop variants in CRFK cells. Human variants: read share among cells still uninfected after two challenges over input, higher = gained restriction. Rhesus variants: share among infected cells over input, higher = lost restriction. Reporter dose not given per row. No active / inactive call per row; the paper calls a change when both replicates lie above its controls (mean + 2 SD of stop or wild-type variants, or the top frameshift score). Residues outside the varied loop are taken from Swiss-Prot. The paper reads the human single-substitution scores as noise; they and the rhesus combinations repeat poorly (rank correlation 0.3 to 0.4), indel scores repeat only for the top variants, rhesus substitutions well (0.9).

The sequences below were run on SIVsab (simian immunodeficiency virus of sabaeus monkeys), single-cycle GFP reporter, in CRFK cells (assay: enrichment among uninfected cells over input (fold); higher = stronger restriction). Conditions: library: human / rhesus combinations.
Method: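 Pools of CRFK cells expressing variants of the TRIM5α v1 loop were challenged with the single-cycle reporter, sorted by GFP and sequenced; mean of two replicates.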
“MASGILVNVKEEVTCPICLELLTQPLSLDCGHSFCQACLTANHKKSMLDKGESSCPVCRISYQPENIRPNRHVANIVEKLREVKLSPEGQKVDHCARHGEKLLLFCQEDGKVICWLCERSQEHRGHHTFLTEEVAREYQVKLQAALEMLRQKQQEAEELEADIREEKASWKTQIQYDKTNVLADFEQLRDILDWEESNELQNLEKEEEDILKSLTNSETEMVQQTQSLRELISDLEHRLQGSVMELLQGVDGVIKRTENVTLKKPETFPKNQRRVFRAPDLKGMLEVFRELTDVRRYWVDVTVAPNNISCAVISEDKRQVSSPKPQIIYGAPGTRFTFQSLTNFNYCTGILGSQSITSGKHYWEVDVSKKTAWILGVCAGFQPDAMCNIEKNENYQPKYGYWVIGLEEGVKCSAFQDSSFHTPSVPFIVPLSVIICPDRVGVFLDYEACTVSFFNITNHGFLIYKFSHCSFSQPVFPYLNPRKCGVPMTLCSPSS [human TRIM5α, 330-340 = GAPGTRFTFQSLT]” showed an enrichment of 0.527 ± 0.3. In the case of “MASGILVNVKEEVTCPICLELLTQPLSLDCGHSFCQACLTANHKKSMLDKGESSCPVCRISYQPENIRPNRHVANIVEKLREVKLSPEGQKVDHCARHGEKLLLFCQEDGKVICWLCERSQEHRGHHTFLTEEVAREYQVKLQAALEMLRQKQQEAEELEADIREEKASWKTQIQYDKTNVLADFEQLRDILDWEESNELQNLEKEEEDILKSLTNSETEMVQQTQSLRELISDLEHRLQGSVMELLQGVDGVIKRTENVTLKKPETFPKNQRRVFRAPDLKGMLEVFRELTDVRRYWVDVTVAPNNISCAVISEDKRQVSSPKPQIIYGARGTRYTFPSFVNFNYCTGILGSQSITSGKHYWEVDVSKKTAWILGVCAGFQPDAMCNIEKNENYQPKYGYWVIGLEEGVKCSAFQDSSFHTPSVPFIVPLSVIICPDRVGVFLDYEACTVSFFNITNHGFLIYKFSHCSFSQPVFPYLNPRKCGVPMTLCSPSS [human TRIM5α, 330-340 = GARGTRYTFPSFV]”, the enrichment is reported as 0.0744 ± 0.1. “MASGILVNVKEEVTCPICLELLTQPLSLDCGHSFCQACLTANHKKSMLDKGESSCPVCRISYQPENIRPNRHVANIVEKLREVKLSPEGQKVDHCARHGEKLLLFCQEDGKVICWLCERSQEHRGHHTFLTEEVAREYQVKLQAALEMLRQKQQEAEELEADIREEKASWKTQIQYDKTNVLADFEQLRDILDWEESNELQNLEKEEEDILKSLTNSETEMVQQTQSLRELISDLEHRLQGSVMELLQGVDGVIKRTENVTLKKPETFPKNQRRVFRAPDLKGMLEVFRELTDVRRYWVDVTVAPNNISCAVISEDKRQVSSPKPQIIYQARGTRFTFPSLTNFNYCTGILGSQSITSGKHYWEVDVSKKTAWILGVCAGFQPDAMCNIEKNENYQPKYGYWVIGLEEGVKCSAFQDSSFHTPSVPFIVPLSVIICPDRVGVFLDYEACTVSFFNITNHGFLIYKFSHCSFSQPVFPYLNPRKCGVPMTLCSPSS [human TRIM5α, 330-340 = QARGTRFTFPSLT]” showed an enrichment of 0.437 ± 0.017. Work on “MASGILVNVKEEVTCPICLELLTQPLSLDCGHSFCQACLTANHKKSMLDKGESSCPVCRISYQPENIRPNRHVANIVEKLREVKLSPEGQKVDHCARHGEKLLLFCQEDGKVICWLCERSQEHRGHHTFLTEEVAREYQVKLQAALEMLRQKQQEAEELEADIREEKASWKTQIQYDKTNVLADFEQLRDILDWEESNELQNLEKEEEDILKSLTNSETEMVQQTQSLRELISDLEHRLQGSVMELLQGVDGVIKRTENVTLKKPETFPKNQRRVFRAPDLKGMLEVFRELTDVRRYWVDVTVAPNNISCAVISEDKRQVSSPKPQIIYGAPGTLYTFQTLTNFNYCTGILGSQSITSGKHYWEVDVSKKTAWILGVCAGFQPDAMCNIEKNENYQPKYGYWVIGLEEGVKCSAFQDSSFHTPSVPFIVPLSVIICPDRVGVFLDYEACTVSFFNITNHGFLIYKFSHCSFSQPVFPYLNPRKCGVPMTLCSPSS [human TRIM5α, 330-340 = GAPGTLYTFQTLT]” yielded an enrichment of 0.244 ± 0.34. “MASGILVNVKEEVTCPICLELLTQPLSLDCGHSFCQACLTANHKKSMLDKGESSCPVCRISYQPENIRPNRHVANIVEKLREVKLSPEGQKVDHCARHGEKLLLFCQEDGKVICWLCERSQEHRGHHTFLTEEVAREYQVKLQAALEMLRQKQQEAEELEADIREEKASWKTQIQYDKTNVLADFEQLRDILDWEESNELQNLEKEEEDILKSLTNSETEMVQQTQSLRELISDLEHRLQGSVMELLQGVDGVIKRTENVTLKKPETFPKNQRRVFRAPDLKGMLEVFRELTDVRRYWVDVTVAPNNISCAVISEDKRQVSSPKPQIIYQARGTRYTFPTLVNFNYCTGILGSQSITSGKHYWEVDVSKKTAWILGVCAGFQPDAMCNIEKNENYQPKYGYWVIGLEEGVKCSAFQDSSFHTPSVPFIVPLSVIICPDRVGVFLDYEACTVSFFNITNHGFLIYKFSHCSFSQPVFPYLNPRKCGVPMTLCSPSS [human TRIM5α, 330-340 = QARGTRYTFPTLV]” gave an enrichment of 0.143 ± 0.2.

Same assay, conditions: library: insertions and deletions
In the case of “MASGILVNVKEEVTCPICLELLTQPLSLDCGHSFCQACLTANHKKSMLDKGESSCPVCRISYQPENIRPNRHVANIVEKLREVKLSPEGQKVDHCARHGEKLLLFCQEDGKVICWLCERSQEHRGHHTFLTEEVAREYQVKLQAALEMLRQKQQEAEELEADIREEKASWKTQIQYDKTNVLADFEQLRDILDWEESNELQNLEKEEEDILKSLTNSETEMVQQTQSLRELISDLEHRLQGSVMELLQGVDGVIKRTENVTLKKPETFPKNQRRVFRAPDLKGMLEVFRELTDVRRYWVDVTVAPNNISCAVISEDKRQVSSPKPQGARGTRYQTFVNFNYCTGILGSQSITSGKHYWEVDVSKKTAWILGVCAGFQPDAMCNIEKNENYQPKYGYWVIGLEEGVKCSAFQDSSFHTPSVPFIVPLSVIICPDRVGVFLDYEACTVSFFNITNHGFLIYKFSHCSFSQPVFPYLNPRKCGVPMTLCSPSS [human TRIM5α, 3-codon deletion at 327]”, the enrichment is reported as 0.571 ± 0.26. “MASGILVNVKEEVTCPICLELLTQPLSLDCGHSFCQACLTANHKKSMLDKGESSCPVCRISYQPENIRPNRHVANIVEKLREVKLSPEGQKVDHCARHGEKLLLFCQEDGKVICWLCERSQEHRGHHTFLTEEVAREYQVKLQAALEMLRQKQQEAEELEADIREEKASWKTQIQYDKTNVLADFEQLRDILDWEESNELQNLEKEEEDILKSLTNSETEMVQQTQSLRELISDLEHRLQGSVMELLQGVDGVIKRTENVTLKKPETFPKNQRRVFRAPDLKGMLEVFRELTDVRRYWVDVTVAPNNISCAVISEDKRQVSSPKPQIIYGARGTRYQTFVNFNYCTGFNYCTGILGSQSITSGKHYWEVDVSKKTAWILGVCAGFQPDAMCNIEKNENYQPKYGYWVIGLEEGVKCSAFQDSSFHTPSVPFIVPLSVIICPDRVGVFLDYEACTVSFFNITNHGFLIYKFSHCSFSQPVFPYLNPRKCGVPMTLCSPSS [human TRIM5α, 6-codon duplication at 342]” showed an enrichment of 0.685 ± 0.56. “MASGILVNVKEEVTCPICLELLTQPLSLDCGHSFCQACLTANHKKSMLDKGESSCPVCRISYQPENIRPNRHVANIVEKLREVKLSPEGQKVDHCARHGEKLLLFCQEDGKVICWLCERSQEHRGHHTFLTEEVAREYQVKLQAALEMLRQKQQEAEELEADIREEKASWKTQIQYDKTNVLADFEQLRDILDWEESNELQNLEKEEEDILKSLTNSETEMVQQTQSLRELISDLEHRLQGSVMELLQGVDGVIKRTENVTLKKPETFPKNQRRVFRAPDLKGMLEVFRELTDVRRYWVDVTVAPNNISCAVISEDKRQVSSPKPQIIYGARGNFNYCTGILGSQSITSGKHYWEVDVSKKTAWILGVCAGFQPDAMCNIEKNENYQPKYGYWVIGLEEGVKCSAFQDSSFHTPSVPFIVPLSVIICPDRVGVFLDYEACTVSFFNITNHGFLIYKFSHCSFSQPVFPYLNPRKCGVPMTLCSPSS [human TRIM5α, 7-codon deletion at 334]” gave an enrichment of 0.882 ± 0.48. “MASGILVNVKEEVTCPICLELLTQPLSLDCGHSFCQACLTANHKKSMLDKGESSCPVCRISYQPENIRPNRHVANIVEKLREVKLSPEGQKVDHCARHGEKLLLFCQEDGKVICWLCERSQEHRGHHTFLTEEVAREYQVKLQAALEMLRQKQQEAEELEADIREEKASWKTQIQYDKTNVLADFEQLRDILDWEESNELQNLEKEEEDILKSLTNSETEMVQQTQSLRELISDLEHRLQGSVMELLQGVDGVIKRTENVTLKKPETFPKNQRRVFRAPDLKGMLEVFRELTDVRRYWVDVTVAPNNISCAVISEDKRQVSSPKPQIIYGARGTRRYQTFVNFNYCTGILGSQSITSGKHYWEVDVSKKTAWILGVCAGFQPDAMCNIEKNENYQPKYGYWVIGLEEGVKCSAFQDSSFHTPSVPFIVPLSVIICPDRVGVFLDYEACTVSFFNITNHGFLIYKFSHCSFSQPVFPYLNPRKCGVPMTLCSPSS [human TRIM5α, 1-codon duplication at 335]” was tested, and the enrichment was 0.634 ± 0.18. “MASGILVNVKEEVTCPICLELLTQPLSLDCGHSFCQACLTANHKKSMLDKGESSCPVCRISYQPENIRPNRHVANIVEKLREVKLSPEGQKVDHCARHGEKLLLFCQEDGKVICWLCERSQEHRGHHTFLTEEVAREYQVKLQAALEMLRQKQQEAEELEADIREEKASWKTQIQYDKTNVLADFEQLRDILDWEESNELQNLEKEEEDILKSLTNSETEMVQQTQSLRELISDLEHRLQGSVMELLQGVDGVIKRTENVTLKKPETFPKNQRRVFRAPDLKGMLEVFRELTDVRRYWVDVTVAPNNISCAVISEDKRQVSSPKPQIYGARGTRYQTFVNFNYCTGILGSQSITSGKHYWEVDVSKKTAWILGVCAGFQPDAMCNIEKNENYQPKYGYWVIGLEEGVKCSAFQDSSFHTPSVPFIVPLSVIICPDRVGVFLDYEACTVSFFNITNHGFLIYKFSHCSFSQPVFPYLNPRKCGVPMTLCSPSS [human TRIM5α, 1-codon deletion at 327]” gave an enrichment of 0.7 ± 0.09. “MASGILVNVKEEVTCPICLELLTQPLSLDCGHSFCQACLTANHKKSMLDKGESSCPVCRISYQPENIRPNRHVANIVEKLREVKLSPEGQKVDHCARHGEKLLLFCQEDGKVICWLCERSQEHRGHHTFLTEEVAREYQVKLQAALEMLRQKQQEAEELEADIREEKASWKTQIQYDKTNVLADFEQLRDILDWEESNELQNLEKEEEDILKSLTNSETEMVQQTQSLRELISDLEHRLQGSVMELLQGVDGVIKRTENVTLKKPETFPKNQRRVFRAPDLKGMLEVFRELTDVRRYWVDVTVAPNNISCAVISEDKRQVSSPKPQIIYRGTRYQTFVNFNYCTGILGSQSITSGKHYWEVDVSKKTAWILGVCAGFQPDAMCNIEKNENYQPKYGYWVIGLEEGVKCSAFQDSSFHTPSVPFIVPLSVIICPDRVGVFLDYEACTVSFFNITNHGFLIYKFSHCSFSQPVFPYLNPRKCGVPMTLCSPSS [human TRIM5α, 2-codon deletion at 330]” gave an enrichment of 0.469 ± 0.33. “MASGILVNVKEEVTCPICLELLTQPLSLDCGHSFCQACLTANHKKSMLDKGESSCPVCRISYQPENIRPNRHVANIVEKLREVKLSPEGQKVDHCARHGEKLLLFCQEDGKVICWLCERSQEHRGHHTFLTEEVAREYQVKLQAALEMLRQKQQEAEELEADIREEKASWKTQIQYDKTNVLADFEQLRDILDWEESNELQNLEKEEEDILKSLTNSETEMVQQTQSLRELISDLEHRLQGSVMELLQGVDGVIKRTENVTLKKPETFPKNQRRVFRAPDLKGMLEVFRELTDVRRYWVDVTVAPNNISCAVISEDKRQVSSPQIIYGARGTRYQTFVNFNYCTGILGSQSITSGKHYWEVDVSKKTAWILGVCAGFQPDAMCNIEKNENYQPKYGYWVIGLEEGVKCSAFQDSSFHTPSVPFIVPLSVIICPDRVGVFLDYEACTVSFFNITNHGFLIYKFSHCSFSQPVFPYLNPRKCGVPMTLCSPSS [human TRIM5α, 2-codon deletion at 324]” was tested, and the enrichment was 2.55 ± 3.3.
